Values joined by “and” are separate entries in the source; they are usually repeats but may differ in a detail not shown here. Equal values may be shown once. Screen size: about 410,000 compounds; about 260 (0.063%) were called active. The shares of active, inactive and inconclusive entries below differ from those in the screen. The call rests on the fitted dose curve; in most records, active means well fitted activation curve with a large enough effect; inconclusive means small, poorly fitted or top-dose-only effect; inactive means no such curve, though single readings can be large or run the other way. Where the call is inconclusive, the potency comes from a doubtful curve fit.
Assay: qHTS for compounds that reverse cellular toxicity of Amyloid beta (A-beta) peptide in yeast: Primary Screen; further: nearly all actives have a fitted effect of over 55% in size
Conditions: yeast expressing A-beta42, growth rescue, OD600, 48 h; growth rescue: at 46.1 µM (top of the series), 0% DMSO, 100% iron-clioquinol control
How it was run: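 Yeast growth medium received pinned compounds, then yeast cells expressing toxic A-beta were added; plates incubated at 30 C for 48 hr. Growth read as absorbance at 600 nm, normalized to DMSO and equimolar FeCl3 plus clioquinol controls.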
Potency means the concentration at half of the fitted maximal effect; tags describe the fitted curve by direction and shape.

Structure (SMILES)	Potency
Cc1nc2ccccc2nc1Nc1cccc(Cl)c1	inconclusive: 10 µM [activator, single point]
CC(=O)N1CCc2cc(S(=O)(=O)NC(C(=O)NCc3ccccc3)C(C)C)ccc21 (stereo not drawn)	inconclusive: 10 µM [activator, partial curve, poor fit]
O=C(O)c1cc(N/N=C/c2c[nH]c3ccccc23)ccc1Cl	inconclusive: 4.47 µM [activator, partial curve]
Cc1[nH]n(-c2ccccc2)c(=O)c1/C=N/NC(=O)c1ccccc1F	active: 10 µM
O=C(Cc1ccccc1)c1ccc(O)cc1	inconclusive: 12.6 µM [activator, partial curve, poor fit]
COc1ccc(CC(=O)O/N=C(\N)c2ccccn2)cc1	inactive
CCc1cccc(C)c1Nc1c(-c2ccc(N(C)C)cc2)nc2cnccn12	inconclusive: 12.6 µM [activator, partial curve, poor fit]
Cc1cccc2cc(C(c3nnnn3C(C)(C)C)N(Cc3ccco3)CC3CCCO3)c(=O)[nH]c12 (stereo not drawn)	inconclusive: 3.16 µM [activator, partial curve, poor fit]
Cc1ccc(CC2CC(=O)N(c3ccncc3)C2=O)cc1 (stereo not drawn)	inconclusive: 2.82 µM [activator, partial curve]
CC1CC(C)(C)N2C(=O)C3(Nc4ccccc4S3)c3cccc1c32 (stereo not drawn)	inactive
O=C(CNCCC1=CCCCC1)Nc1ccccc1N1CCCCCC1	inconclusive: 22.4 µM [activator, single point]
COc1ccccc1N1CCN(Cc2nc(-c3cc(OC)c(OC)c(OC)c3)no2)CC1	inactive
CNC(=S)N1CCC(Cc2ccccc2)CC1	inconclusive: 14.1 µM [activator, partial curve, poor fit]
CC(C)NC(=O)C1(C)CCN1C(=O)c1cccc(F)c1 (stereo not drawn)	inactive
Fc1cccc(/C=N/NC(=S)Nc2ccccc2Cl)c1	inconclusive: 8.91 µM [activator, partial curve, poor fit]
O=C1Nc2ccccc2C1Cc1ccc(Br)cc1 (stereo not drawn)	inconclusive: 15.8 µM [activator, single point]
COc1ccc(OCC(=O)Nc2cc(-c3nc4ccccc4o3)ccc2Cl)cc1	inactive
CCOc1ccc(C(=O)Nc2ccc(C(=O)OCc3cc(=O)n4c(C)csc4n3)cc2)cc1	inactive
CSc1ccccc1NC(=O)COC(=O)CCCOc1ccc(C)cc1	inconclusive: 14.1 µM [activator, partial curve, poor fit]
CC(C)c1ccc(NC(=S)Nc2ccc3[nH]c(=O)[nH]c3c2)cc1	inconclusive: 31.6 µM [activator, single point]
Cc1ccc(CNC(=O)Cn2ccn(-c3ccc(F)c(F)c3)c(=O)c2=O)cc1	inactive
Fc1ccccc1NC(=S)NNc1ncc(C(F)(F)F)cc1Cl	inconclusive: 20 µM [activator, partial curve, poor fit]

Structure (SMILES)	Potency
COc1cc2[nH]c(=O)n(CCCCCC(=O)NCCc3ccccc3)c(=O)c2cc1OC	inactive
O=[N+]([O-])c1ccc(NC(c2ccccc2)c2ccc3cccnc3c2O)cc1 (stereo not drawn)	inconclusive: 11.2 µM [activator, single point]
CC(NC(=O)CSc1nnc(COc2ccccc2)o1)c1ccccc1 (stereo not drawn)	inconclusive: 5.62 µM [activator, partial curve]
COc1ccccc1CNc1nc(Oc2cccc(F)c2)c2sccc2n1	inactive
S=c1[nH]cnc2scc(-c3ccc(Br)cc3)c12	inconclusive: 3.98 µM [activator, partial curve]
N#Cc1ccc(C(=O)Nc2nnc(-c3cccs3)o2)cc1	inactive
O=C(Nc1nnc(-c2cccnc2)o1)c1cccc(Cl)c1	inconclusive: 1.78 µM [activator, full curve, poor fit]
Cc1noc(C)c1COC(=O)CCCOc1ccc(Cl)cc1Cl	inconclusive: 2.24 µM [activator, full curve, poor fit]
COc1ccc(C(=O)NCc2cc3ccccc3n2C)cc1	inconclusive: 22.4 µM [activator, partial curve, poor fit]
Cc1ccc(NC(=S)N2CCC(c3ccccc3)C2)c(Cl)c1 (stereo not drawn)	inconclusive: 12.6 µM [activator, single point]
CCOc1ccc(CNC(=S)Nc2ccccc2)cc1Cl	inconclusive: 12.6 µM [activator, partial curve, poor fit]
CCOC(=O)Cn1c(C)nc2ccccc21	inconclusive: 35.5 µM [activator, single point]
Brc1ccc(OCCCOc2cccc3cccnc23)cc1	inconclusive: 3.55 µM [activator, full curve]
Cc1ccc(Cl)cc1NC(=O)c1ccc2snnc2c1	inconclusive: 2.51 µM [activator, full curve, poor fit]
O=C(Nc1cccc(C(F)(F)F)c1)C1Cc2c(-c3ccccc3)ccnc2O1 (stereo not drawn)	inconclusive: 20 µM [activator, partial curve, poor fit]
O=S(=O)(NC(=NCc1ccccc1)c1ccc(F)cc1)c1ccc(Cl)cc1	inconclusive: 3.55 µM [activator, single point]
Cc1ccc(CN2C(=O)C(Cc3ccccc3)Nc3ncnc(N4CCCCC4)c32)cc1 (stereo not drawn)	inconclusive: 12.6 µM [activator, partial curve, poor fit] and inconclusive: 35.5 µM [activator, single point]
Cc1cccc(C(=O)NC(=S)NCc2ccccc2)c1	inconclusive: 5.62 µM [activator, partial curve]
Cc1ccc(SC(C)C(=O)NC(N)=O)c(C)c1 (stereo not drawn)	inconclusive: 1.12 µM [activator, full curve, poor fit]
O=C(NC(=S)NN1CCCCC1c1cccnc1)c1ccc(Cl)cc1Cl (stereo not drawn)	inconclusive: 2.51 µM [activator, full curve, poor fit]
Cc1ccc(Cn2c(C(CO)Nc3nc(-c4ccc(Cl)c([N+](=O)[O-])c4)cs3)nc3ccccc32)cc1 (stereo not drawn)	inactive

Reference: PubChem BioAssay AID1347071 (National Center for Advancing Translational Sciences (NCATS), 2019)
